Measured values reported in PubChem BioAssay AID1963576 (National Center for Advancing Translational Sciences (NCATS), 2024).
In all, about 46,000 compounds went through this assay and about 60 (0.1%) were called active. Roughly 3% stayed inconclusive and do not appear here. Calls come from the whole dose curve; as a rule, active = well fitted inhibition curve with a large enough effect; inconclusive = small, poorly fitted or top-dose-only effect; inactive = no such curve, though single readings can be large or run the other way. This is one part of the list.

Assay: Primary qHTS assay for Inhibitors of ovarian cancer metastasis using an organotypic tumor microenvironment (TME) model.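 For activity change, negative = inhibition: plate controls were DMSO wells for no effect and tomatine positive control wells for full effect.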 Note: nearly all actives have a fitted effect of over 65% in size.
Settings: SKOV3ip1-GFP adhesion/invasion on 3D omental model, fluorescence; series mostly up to 45.8 µM; activity change, negative = inhibition: at the top concentration
Outline: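 A 3D layer of primary human omental fibroblasts, mesothelial cells, fibronectin and collagen I, grown 48 hr, received SKOV3ip1-GFP cells in serum-free medium plus compounds at 0.36-46 umol/L. After 2 hr RT and 16 hr 37 C, fixed adherent GFP cells were counted; normalized to DMSO and tomatine.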

Activity change, negative = inhibition, inactive:
CNS(=O)(=O)c1cn(CC(=O)N2CCN(c3cccc(Cl)c3)CC2)cc1S(=O)(=O)NC -0.825%, CC(C)Oc1ccc(CNC(=O)c2ccccc2NC(=O)c2nsc3ccccc23)cc1 -7.55%, CCC(Oc1ccccc1)C(=O)Nc1ccc(OCc2cc(=O)n3ccc(C)cc3n2)cc1 (stereo unspecified) -8.97%, Cc1oc(-c2ccccc2F)nc1CSCC(=O)NCCc1ccccc1 -5.32%, CCCCC(C=O)NC(=O)C(CC(C)C)NC(=O)OCc1ccccc1 (stereo unspecified) -4.12%, O=S(=O)(NCCc1nnc2ccc(SCc3c(F)cccc3Cl)nn12)c1ccccc1 -8.37%, COC(=O)c1ccc(CN(Cc2ccc(OC)c(OC)c2)S(=O)(=O)c2cc(C(=O)Nc3cccc(C)c3)ccc2F)cc1 8.09%, O=C(CCCCn1c(=O)c2ccccc2n(Cc2ccccc2F)c1=O)NCc1ccccc1Cl 23.7%, CCN(CC)C(=O)C1=CC(c2ccc3c(c2)OCO3)=NS(=O)(=O)N1C 1.1%, COc1ccc(N2C(=O)CS(=O)(=O)C23C(=O)N(Cc2c(F)cccc2Cl)c2ccccc23)cc1 (stereo unspecified) -21.9%, CC(C)CCNC(=O)c1cc(Sc2ccc(F)cc2F)nc2ccccc12 10.4%, COc1ccc(NC(=O)CN(C)S(=O)(=O)c2ccc3nc(C)sc3c2)cc1 -1.06%, O=C(CN1CCN(CC(=O)Nc2ccccc2F)CC1)Nc1ccc(Cl)c(C(F)(F)F)c1 -10.1%, CCCCn1cc(S(=O)(=O)c2ccccc2)c(=O)c2cc(F)c(N3CCC(C)CC3)cc21 0.176%, O=C(NCCc1ccccc1)c1ccc(CSc2nc3ccncc3n2Cc2cccc(F)c2)cc1 -12.6%, COc1cc(C(=O)Nc2ccc(OCc3cc(=O)n4cccc(C)c4n3)cc2)cc(OC)c1OC 1.32%, CCc1ccc(NC(=O)C2CCN(S(=O)(=O)c3c(C)noc3/C=C\c3ccc(OC)cc3)CC2)cc1 0.334%, CC1=C(c2ccc(C)c(C)c2)S(=O)(=O)N=C1N1CCC(C(=O)N2CCCCC2)CC1 -7.64%, CCOc1ccc(CNC(=O)CCc2cn(CC)c3ccccc23)cc1 -7.65%, CCOc1ccccc1N1CC(c2nc3ccccc3n2CCCCOc2cc(C)ccc2C)CC1=O (stereo unspecified) -2.02%, CN(C)c1ccc(CNC(=O)c2ccc3c(c2)N(C)C(=O)C2CCCCN32)cc1 (stereo unspecified) -16.4%, O=C(c1cnc(N2CCOCC2)c2ccccc12)N1CCN(c2ccccc2F)CC1 2.29%

outcome, inactive:
Cc1ccc(NC(=O)CSc2nc3ccc(NC(=O)CCc4ccccc4)cc3s2)c(C)c1, CCOC(=O)C1=C(C(F)(F)F)Nc2ncnn2C1c1cccc(OC)c1OC (stereo unspecified), CCOC(=O)c1cnc2c(C)cc(C)cc2c1Nc1ccc(OCc2ccccc2)cc1, COc1ccc(NC(=O)C2=C(C)Nc3ncnn3C2c2ccccn2)cc1 (stereo unspecified)
